From PubChem BioAssay AID1963576 (National Center for Advancing Translational Sciences (NCATS), 2024)
The whole screen tested about 46,000 compounds, of which about 60 (0.1%) were called active. The shares of active, inactive and inconclusive entries below differ from those in the screen. Calls follow the shape of the dose curve; as a rule, active = well fitted inhibition curve with a large enough effect; inconclusive = small, poorly fitted or top-dose-only effect; inactive = no such curve, though single readings can be large or run the other way. Potencies of inconclusive entries are left out as doubtful fits.

Assay: Primary qHTS assay for Inhibitors of ovarian cancer metastasis using an organotypic tumor microenvironment (TME) model. Also: nearly all actives have a fitted effect of over 65% in size.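 As to Potency: count of GFP cancer cells still attached after washing and fixation.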
Conditions: SKOV3ip1-GFP adhesion/invasion on 3D omental model, fluorescence; series mostly up to 45.8 µM
In short: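 A 3D layer of primary human omental fibroblasts, mesothelial cells, fibronectin and collagen I, grown 48 hr, received SKOV3ip1-GFP cells in serum-free medium plus compounds at 0.36-46 umol/L. After 2 hr RT and 16 hr 37 C, fixed adherent GFP cells were counted; normalized to DMSO and tomatine.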
Potency is read from the fitted curve at half-maximal effect; tags tell the direction and shape of the fitted curve.

SMILES	Potency
Cc1ccc(S(=O)(=O)c2nnn3c2nc(NC(C)C)c2cc(Cl)ccc23)cc1C	inconclusive [inhibitor, single point]
CCOc1ccc(/C=C/c2nc(C#N)c(NCc3ccccc3)o2)cc1	inactive
CCOC(=O)N1CCc2c(sc3c2C(=O)NC(c2cc(OC)c(OC)c(OC)c2)N3)C1 (stereo not drawn)	inconclusive [inhibitor, full curve, poor fit]
CCOC(=O)c1ccc(NC(=O)CSc2nc3cc4ccccc4cc3[nH]2)cc1	inactive
CCc1cccc(-n2c(=O)c3cccnc3n2CC(=O)Nc2c(C)cc(C)cc2C)c1	inconclusive [inhibitor, partial curve, poor fit]
COc1cc(S(=O)(=O)NCCc2c(C)[nH]c3ccccc23)c(C)cc1C	inactive
Cc1ccc(Cl)cc1-n1ncc2c(N3CCN(Cc4ccccc4)CC3)ncnc21	inactive
COc1cc(-c2nc(Cn3nnc(C(=O)Nc4cccc(Cl)c4)c3C)c(C)o2)cc(OC)c1OC	inconclusive [inhibitor, single point]
COc1cc(C)c(Sc2cnc(NC(=O)c3ccc(CNC(C)C(C)C)cc3)s2)cc1C(=O)N1CCN(C(C)=O)CC1 (stereo not drawn)	inactive
COc1ccc(CCNc2ncnc3c2cnn3-c2cc(Cl)ccc2C)cc1	inconclusive [inhibitor, single point]
CCN(c1ccccc1)S(=O)(=O)c1nnc(NC(=O)COc2cccc(C)c2)s1	inconclusive [inhibitor, single point]
CN(C)CCNc1oc(-c2ccc(COc3ccc(Cl)cc3)o2)nc1C#N	inconclusive [inhibitor, single point]
CC(=O)Nc1cc(C(=O)Nc2ccc3c(c2)N(C)C(=O)c2ccccc2S3)ccc1C	inconclusive [inhibitor, single point]
COc1ccc(CNC(=O)C(=O)Nc2cc(Cl)ccc2OC)cc1	inconclusive [inhibitor, partial curve, poor fit]
CNCC[C@H](Oc1cccc2ccccc12)c1cccs1	inactive
CCOc1ccc(NC(=O)CN2CCSc3ccc(S(=O)(=O)N4CCCC4)cc32)cc1	inactive
CC(C)CCNc1ncnc2c1cnn2-c1cccc(Cl)c1	inconclusive [inhibitor, single point]
CCS(=O)(=O)c1ncc(Cl)c(C(=O)N(Cc2ccccc2)c2ccc(OC)cc2)n1	inconclusive [inhibitor, full curve, poor fit]
COc1cccc(Nc2sc(C(=O)c3ccc(Cl)cc3)c(N)c2C(=O)NCCc2ccc(OC)c(OC)c2)c1	inconclusive [inhibitor, single point]
COc1ccc(OC)c(Nc2c3c(nc4ccccc24)CCC3)c1	inconclusive [inhibitor, full curve, poor fit]
O=C(CC1Nc2cccc3cccc(c23)NC1=O)Nc1ccc(F)cc1 (stereo not drawn)	inactive
CC(C)OCCCN1C(=O)c2[nH]nc(-c3ccccc3O)c2C1c1cccc(OCc2ccccc2)c1 (stereo not drawn)	inconclusive [inhibitor, single point]
COc1ccc(-n2c(=O)c3sc4ccccc4c3n(CC(=O)N3CCCC3)c2=O)cc1	inactive

SMILES	Potency
COc1cc(OC)c(NC(=O)c2nc(-c3ccncc3)no2)cc1Cl	inconclusive [inhibitor, single point]
CCOc1cccc(CNc2ccc(O)cc2)c1OCc1ccccc1Cl	inconclusive [inhibitor, single point]
CCc1ccc(NC(=O)CSc2nc3ccccc3nc2Cc2ccccc2OC)cc1	inconclusive [inhibitor, single point]
Cc1ccc(CN(C(=O)COc2ccc(C(C)C)cc2)C2CCS(=O)(=O)C2)o1 (stereo not drawn)	inactive
CC1CCCN(c2c(S(=O)(=O)c3ccccc3)cnc3ccc(Cl)cc23)C1 (stereo not drawn)	inconclusive [inhibitor, single point]
Cc1cc(OCCCn2c(CCNC(=O)C3CCCCC3)nc3ccccc32)ccc1Cl	inconclusive [inhibitor, full curve, poor fit]
COc1ccc2c(Sc3ccc(C)cc3)c(C(=O)NCCc3ccccc3)[nH]c2c1	inconclusive [inhibitor, single point]
C[C@@]12C(=O)OC(=O)[C@@]1(C)C1CCC2O1	inconclusive [inhibitor, partial curve, poor fit]
CCc1cccc(NS(=O)(=O)c2ccc(-n3cccn3)cc2)c1	inactive
Cc1ccnc2c1NC(=O)c1cccnc1N2C1CC1	inactive
CC(=O)c1cccc(Nc2nc(-c3cccc(C)c3)nc3ccccc23)c1	inconclusive [inhibitor, partial curve, poor fit]
Cc1ccc(CCNC(=O)c2c[nH]c3ccc(S(=O)(=O)Nc4ccc(C)cc4C)cc3c2=O)cc1	inconclusive [inhibitor, partial curve, poor fit]
C[Se]CCC(N)C(=O)O (stereo not drawn)	inconclusive [inhibitor, partial curve, poor fit]
COc1ccc(S(=O)(=O)Nc2ccc3oc4c(c3c2)C(=O)CC(C)(C)C4)cc1	inactive
CCOc1ccccc1NC(=O)c1c(NCc2ccc(C)o2)sc2c1CCC(C)C2 (stereo not drawn)	inconclusive [inhibitor, single point]
OCCNC1CCCc2c1[nH]c1ccc(-c3ccccc3)cc21 (stereo not drawn)	inconclusive [inhibitor, single point]
CCN1CCc2nc3sc(C(=O)c4ccccc4)c(N)c3cc2C1	inconclusive [inhibitor, single point]
CCCN(CCC)C(=O)CN1C(=O)CSc2ccc(S(=O)(=O)N3CCC(C)CC3)cc21	inconclusive [inhibitor, single point]
Cc1n[nH]c(C)c1S(=O)(=O)N1CCCC(C(=O)Nc2ccc(Cl)cc2)C1 (stereo not drawn)	inconclusive [inhibitor, full curve, poor fit]
Cc1ccc2oc(=O)c3cnn(CC(=O)N4CCN(c5cc(Cl)ccc5C)CC4)c3c2c1	inconclusive [inhibitor, single point]
CN1C(=O)c2ccccc2Sc2ccc(NC(=O)COc3ccccc3)cc21	inactive
CCCC(=O)N(c1ccc2oc(C)c(C(C)=O)c2c1)S(=O)(=O)c1ccc(C)cc1	inactive
COc1ccc(C(=O)/C=C/c2cn(CC(O)CN(CC(C)C)CC(C)C)c3ccccc23)cc1 (stereo not drawn)	inactive

SMILES	Potency
COc1ccc(NC(=O)c2nnn(Cc3nc(-c4cc(OC)c(OC)c(OC)c4)oc3C)c2C)cc1	inactive
CCNc1nc2c(c(=O)[nH]c(=O)n2C)n1CC(O)COc1ccc(Cl)cc1Cl (stereo not drawn)	inactive
CCOC(=O)c1cnc2cc(C(F)(F)F)ccc2c1N1CCN(c2ccc(F)cc2)CC1	inactive
CCOC(=O)c1c(-c2ccc(C)cc2)csc1NC(=O)c1cc(=O)c2cc(Cl)ccc2o1	inconclusive [inhibitor, single point]
O=C(Nc1ccc2nc(SCC(=O)N3CCCC3)sc2c1)c1ccc(Br)cc1	inactive
CC(C)Oc1ccc(CNC(=O)Nc2ccc3c(c2)N(C)C(=O)c2ccccc2S3)cc1	inconclusive [inhibitor, partial curve]
Fc1ccccc1OCc1nc(-c2ccc(-n3cccc3)cc2)no1	inactive
Cc1ccc2c(c1)C(=O)C(=O)N2Cc1ccc(OC(C)C)cc1	inactive
CCOc1ccc(-c2cn3c(n2)sc2cc(C(=O)NCCCN(CC)CC)ccc23)cc1	inconclusive [inhibitor, partial curve, poor fit]
C=Cc1ccc(CSc2nnc(C)n3c2cc2occc23)cc1	inconclusive [inhibitor, single point]
COc1cccc(NC(=O)CSc2nnc(-c3cccs3)o2)c1	inactive
CC1=C(c2ccc(C)c(C)c2)S(=O)(=O)N=C1N1CCC(C(=O)Nc2cccc(F)c2)CC1	inconclusive [inhibitor, single point]
COc1cccc(-c2ccc3c(N)c(C(=O)NCc4ccc(Cl)cc4)sc3n2)c1	inconclusive [inhibitor, partial curve, poor fit]
O=S(=O)(Nc1nc2n(n1)C(c1ccc(F)cc1)C=C(c1ccccc1)N2)c1ccc(Cl)cc1 (stereo not drawn)	inactive
CCOC(=O)c1cc(-c2ccccc2)n(CCC(=O)Nc2ccc(Cl)c(C(F)(F)F)c2)c1C	inconclusive [inhibitor, single point]
CCOC(=O)c1c(-c2ccccc2)csc1NC(=O)c1nc(S(=O)(=O)CC)ncc1Cl	inconclusive [inhibitor, full curve]
COc1ccc(C2=CC(c3ccccc3F)n3ncc(C(=O)Nc4ccc(C)cc4)c3N2)cc1 (stereo not drawn)	inactive
Cc1c2cnn(CC(=O)NCc3ccc(F)cc3)c(=O)c2c(C)n1Cc1ccccc1F	inconclusive [inhibitor, partial curve, poor fit]
Cc1noc(/C=C/N(C)C)c1S(=O)(=O)N1CCCC(C(=O)Nc2ccc(F)cc2F)C1 (stereo not drawn)	inactive
Cc1ccc(OCCCn2c(CCNC(=O)C3CCCCC3)nc3ccccc32)c(C)c1	inactive
CCc1cccc(NC(=O)CCc2c(C)nc3c(c2C)c(=O)n(C)c(=O)n3C)c1	inactive
CC(CNC(=O)Cn1ccc2cc(S(=O)(=O)N3CCCCCC3)ccc21)c1ccccc1 (stereo not drawn)	inconclusive [inhibitor, single point]
